In PubChem BioAssay AID588855 (National Center for Advancing Translational Sciences (NCATS), 2011):
In all, about 410,000 compounds went through this assay and about 5,000 (1.2%) were called active. The shares of active, inactive and inconclusive entries below differ from those in the screen. Calls come from the whole dose curve; as a rule, active = well fitted inhibition curve with a large enough effect; inconclusive = small, poorly fitted or top-dose-only effect; inactive = no such curve, though single readings can be large or run the other way. Potencies of inconclusive entries are doubtful fits and often do not repeat.

Experiment: qHTS for Inhibitors of TGF-b; note: nearly all actives have a fitted effect of over 65% in size
Conditions: HepG2 CAGA-GFP TGF-b/SMAD3 reporter, GFP fluorescence, 18 h, TGF-beta stimulated, 500 pg/mL final; series mostly up to 46.1 µM
In short: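 HEPG2 CAGA-GFP reporter cells (1000/well, DMEM with 1% FBS) received compounds, then recombinant TGF-beta at 500 pg/mL final for 18 hours at 37 degrees C. Per-cell GFP summed per well was normalised to unstimulated and stimulated DMSO controls before curve fitting.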
Potency is the fitted concentration of half-maximal effect; tags give direction and shape of the fitted curve.

| SMILES | Potency |
| --- | --- |
| O=C(Nc1ccc2oc(-c3cccnc3)nc2c1)c1ccc(-c2cccc(Cl)c2)o1 | inconclusive: 2.82 µM [inhibitor, single point] |
| CC1=C(O)C(=O)C=C2C1=CC=C1C2(C)CCC2(C)C3CC(C)(C(=O)O)CCC3(C)CCC12C (stereo unspecified) | active: 2 µM |
| CC[n+]1c(SC)ccc2cc(OC)ccc21 | inactive |
| Cc1ccsc1C(=O)C1CCCN(Cc2cc3ccccc3o2)C1 (stereo unspecified) | inconclusive: 14.1 µM [inhibitor, partial curve, poor fit] |
| CCOc1cc2c(cc1OCC)-n1cccc1C(c1cc(C)c(OC)cc1C)NC2 (stereo unspecified) | inconclusive: 28.2 µM [inhibitor, single point] |
| COCCCn1c(N)c(C(=O)Nc2ccccc2)c2nc3ccccc3nc21 | inconclusive: 22.4 µM [inhibitor, single point] |
| O=c1[nH]c2ccccc2n1C1CCN(C(c2ccnc3ccccc23)c2nnnn2-c2ccc3c(c2)OCCO3)CC1 (stereo unspecified) | inconclusive: 31.6 µM [inhibitor, single point] |
| COC(=O)C1=C(c2ccccc2)C[C@@H]2CC[C@H]1N2C(=O)N1CCC(C)CC1 | inactive |
| COc1cc2[nH]c(=O)n(Cc3ccc(C(=O)N4CCN(c5ccc(Cl)cc5)CC4)cc3)c(=O)c2cc1OC | inconclusive: 4.47 µM [inhibitor, partial curve, poor fit] |
| COC(=O)C1=C(c2cc3ccccc3o2)C[C@@H]2CC[C@H]1N2C(=O)N1CCC(C)CC1 | inconclusive: 35.5 µM [inhibitor, partial curve, poor fit] |
| O=C1NC(=O)C(=Cc2c(Cl)cccc2Cl)C(=O)N1 | inconclusive: 22.4 µM [inhibitor, single point] |
| CCCCCCn1c(O)c(C=Nc2c(C)n(C)n(-c3ccccc3)c2=O)c(=O)[nH]c1=O | inconclusive: 35.5 µM [inhibitor, single point] |
| Cc1ccc(NC(=O)c2cc(S(=O)(=O)N3CCOCC3)c(Cl)cc2Cl)cc1 | inconclusive: 10 µM [inhibitor, partial curve] |
| CCOc1ccc(C2c3c(-c4ccccc4O)n[nH]c3C(=O)N2Cc2ccncc2)cc1 (stereo unspecified) | inconclusive: 35.5 µM [inhibitor, single point] |
| Cc1c(C(=O)N2CCC3(CC2)OCCO3)oc2ccc(S(=O)(=O)N3CCCCC3)cc12 | inconclusive: 3.55 µM [inhibitor, single point] |
| CN(CCc1ccccc1)Cc1ccccc1[N+](=O)[O-] | inactive |
| CCCCNC(=O)C1CCCN(Cc2nc(-c3ccc(Cl)cc3)oc2C)C1 (stereo unspecified) | inconclusive: 3.55 µM [inhibitor, full curve, poor fit] |
| CCCCCCN=C(CC)c1c(O)n(CCCC)c(=O)[nH]c1=O | inconclusive: 35.5 µM [inhibitor, partial curve, poor fit] |

| SMILES | Potency |
| --- | --- |
| C/C(CC(c1ccccc1)c1c(O)c2ccccc2oc1=O)=N\Nc1ccc([N+](=O)[O-])cc1[N+](=O)[O-] (stereo unspecified) | inconclusive: 35.5 µM [inhibitor, single point] |
| COC(=O)C1C(O)C(C)C(O)C(C)/C=C\C=C(/C)C(=O)Nc2c(C)c(OC(C)=O)c3c(c2O)C(=O)C(C)=C2OCOC(=C23)/C(C)=C/C(C)(O)C(O)C(C)C1O (stereo unspecified) | inconclusive: 7.94 µM [inhibitor, partial curve] |
| CSc1nc(C)c(Br)c(N2CC2)n1 | inactive |
| CN(CCc1ccccc1)C(=O)c1ccc(NC(=O)Cc2cccc([N+](=O)[O-])c2)cc1 | inconclusive: 0.794 µM [inhibitor, full curve, poor fit] |
| CC(C)=CCc1c(O)cc2c(c1O)C(=O)CC(c1ccc(O)cc1)O2 (stereo unspecified) | inconclusive: 25.1 µM [inhibitor, single point] |
| CC12CCC3c4ccc(OC(=O)N(CCCl)CCCl)cc4CCC3C1CCC2O (stereo unspecified) | inconclusive: 35.5 µM [inhibitor, single point] |
| Cc1cc(O)c2c(c1)OC(C)(C)C1=C2CC(C)CC1 (stereo unspecified) | inconclusive: 10 µM [inhibitor, partial curve] |
| CC[C@H]1OC(=O)C[C@@H](O)[C@H](C)[C@@H](O[C@@H]2O[C@H](C)[C@@H](O[C@H]3C[C@@](C)(O)[C@@H](O)[C@H](C)O3)[C@H](N(C)C)[C@H]2O)[C@@H](CC=O)C[C@@H](C)C(=O)/C=C/C(C)=C/[C@@H]1CO[C@@H]1O[C@H](C)[C@@H](O)[C@@H](OC)[C@H]1OC | inactive |
| CCc1ccc(N2C(=O)NC(=O)/C(=C\C=C\c3ccco3)C2=O)cc1 | inconclusive: 7.08 µM [inhibitor, full curve, poor fit] |
| COc1ccc(OC)c(NC(=O)Cn2cc(C(=O)c3ccccc3)c3ccccc32)c1 | inconclusive: 14.1 µM [inhibitor, single point] |
| Cc1ccc(CN(Cc2ccccc2)C(=S)NCC(=O)N2CCC3(CC2)OCCO3)o1 | inconclusive: 5.62 µM [inhibitor, single point] |
| COC(=O)C1=C(c2ccc(F)cc2OCc2ccccc2)C[C@@H]2CC[C@H]1N2C(=O)NCCOc1ccccc1Cl | inconclusive: 17.8 µM [inhibitor, single point] |
| COc1ccccc1-n1c(-c2cccs2)nc2ccccc2c1=O | inactive |
| c1cc2n(c1)-c1c(ccc3c1OCO3)CNC2c1ccc2c(c1)OCO2 (stereo unspecified) | inactive |
| O=c1[nH]c(N2CCN(Cc3ccc4c(c3)OCO4)CC2)nc2c1CCC2 | inconclusive: 2.51 µM [inhibitor, partial curve] |
| COc1cccc(O)c1CN1CCCC(C(=O)c2ccccc2SC)C1 (stereo unspecified) | inconclusive: 10 µM [inhibitor, partial curve, poor fit] |
| COC(=O)C1=C(c2ccc(OCc3ccccc3)cc2)C[C@@H]2CC[C@H]1N2C(=O)NCc1ccc([N+](=O)[O-])cc1 | inconclusive: 8.91 µM [inhibitor, partial curve, poor fit] |
| CC1=Nc2ccccc2/C1=C/c1c(O)n(C)c(=O)[nH]c1=O | inconclusive: 0.398 µM [inhibitor, full curve, poor fit] |
